# According to the supplement of paper PMC12632987:
# The full ranking holds about 1,800 sequences; the median of “median log2 fold change of GCK-ALFA target abundance (FLAG IP / Myc IP barcode read proportion)” is about 0.14, and the lowest 2% start at about -0.84. This is one part of the list.
# T1: TRAF2, Q12933
# T1 chain: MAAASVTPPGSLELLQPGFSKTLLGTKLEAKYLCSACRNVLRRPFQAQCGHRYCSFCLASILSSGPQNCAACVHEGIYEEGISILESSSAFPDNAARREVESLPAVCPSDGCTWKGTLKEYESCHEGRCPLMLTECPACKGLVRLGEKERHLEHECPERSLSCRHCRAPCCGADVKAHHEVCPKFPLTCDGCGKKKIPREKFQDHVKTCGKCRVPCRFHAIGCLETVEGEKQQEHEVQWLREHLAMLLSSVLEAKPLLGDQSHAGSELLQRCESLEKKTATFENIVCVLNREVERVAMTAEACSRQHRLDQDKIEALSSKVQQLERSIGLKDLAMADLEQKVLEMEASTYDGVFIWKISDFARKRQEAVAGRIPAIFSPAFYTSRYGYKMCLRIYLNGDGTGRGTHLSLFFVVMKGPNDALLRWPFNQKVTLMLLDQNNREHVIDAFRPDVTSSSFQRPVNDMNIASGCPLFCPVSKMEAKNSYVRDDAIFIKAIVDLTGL
# B1: traf2_out_18_167_1830 (protein)
# chain: EEEIRKKKSELMDKMVEWSEVRREAQELLQTLEKDPSKLPEVLKKLEELAEKTGKFKEEVEAIKKLPPEEALKAAKELLEKIIEEAQRKMNELYKEYEKL
# B2: traf2_out_17_162_1628 (protein)
# chain: SPREERLEELKRRLEELEEKRKRLEELSKKIDELSKEELTDYLVEASEARREARELAEEARRLREELNDPELEELIRRAEELAEKFQRIANKFYEKLLEK
# B3: traf2_out_13_95_1198 (protein)
# chain: EEEKTRKIREVTNRIADELLDFVDATAERVEEETGDAAAKARILAALNGRGVSAAIEVLRRLAAEDPEHAAVYLAAAAELEAKRREAGRRVAEELKKIEE
# B4: traf2_out_11_169_832 (protein)
# chain: EEAEKNRKINDKALELEDKAKEELKKYALEAAKKEGLDVEEVEKIFEENKGKSLSAIAAALIEWARSKGAEKFAAAILAKYEELKDKINKEMTKFIKELE
# B5: traf2_out_20_3_2055 (protein)
# chain: EELLKKIEELLKKAEELLKEIEKLADPETAKRLREAWEEVLKAKKEGLEEFLIAVSRLRRLALELAEEARREGREELAALLEELADTYGRIANLVYKLIE
# B6: traf2_out_17_162_1508 (protein)
# chain: SPIEEFRKRAEEELERLEEELKRLEEKMEKLEEMSKEEISDLLVEASELRRRARELAEEIRKHKEELGEEEAEELIERAEEIAERLQRIANKAYKELLKK
# B7: traf2_out_13_95_1122 (protein)
# chain: SAEVAAEINKIADEMEERRLAILEELLKIAKEKGIAEEEIQAILEFAKHGTINEVIHRLKELAKKYPEMKEELEAAIAELEAIRREAGRKVAEILKKEKE
# B8: traf2_out_5_86_2373 (protein)
# chain: EEAKRDANHDRLVATWLAAEKKVYAKAKELGLNASQFGEVLEEMAKMIDPEKREAALARVRALAKEAGLSEEQTAELVALLTEQAEEIRAVLDAIRAESA
# Target: T1, TRAF2, Q12933
# Assay: median log2 fold change of GCK-ALFA target abundance (FLAG IP / Myc IP barcode read proportion) (log2 ratio); each designed protein is fused to an ALFA-tag nanobody in HEK293 cells to bring the named protein to FLAG-tagged glucokinase (GCK); Myc marks an untargeted standard; higher = target protein stabilised (more abundant)
# Conditions: target protein: 3xFLAG-MCP-GCK-ALFA reporter; HEK293 landing pad (RPLP)
# Method in brief: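 HEK293 landing-pad cells received a recombined binder library fused to the ALFA nanobody and were induced with 2 μg mL^−1 doxycycline, then transfected with a plasmid encoding a FLAG-tagged target and a Myc-tagged standard. Lysates were collected after 48 h for anti-FLAG and anti-Myc immunoprecipitation, and the circular RNA barcodes were reverse transcribed, amplified and sequenced. Target abundance for each binder is the median log2 ratio of FLAG to Myc barcode read proportions. Barcodes had to reach a proportion of at least 10^−7 in both replicates, each binder needed at least 3 barcodes per replicate, a pseudocount of 10^−6 was applied, and the two replicates were pooled.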
row,Binder,median log2 fold change
1,B1,0.316
2,B2,0.285
3,B3,-0.375
4,B4,-0.695
5,B5,0.0336
6,B6,0.287
7,B7,0.141
8,B8,-0.309
